Source: the supplement of paper PMC12067230
The data scatter; read single values as rough.

Assay: amyloid nucleation score relative to library mode (yeast Sup35 reporter selection) (log enrichment difference); higher = more amyloid nucleation; sequences are the first 22 residues of the Bri2 peptide extended by up to 12 random residues
Settings: random library (experiment): 1;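 active = nucleation score significantly above 0 at FDR 0.05; inactive = not significantly above 0 or absent from output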
Protocol: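 Random C-terminal extensions of the 22-aa Bri2 peptide by 12 NNK codons; premature stops give shorter extensions. Peptides were fused to the Sup35 nucleation domain in S. cerevisiae [psi-pin-] and selected on -ADE-URA plates for 7 d at 30 °C. The nucleation score is log(output/input), centred to the mode of each of 3 independent libraries (1 input, 3 technical output replicates), with duplicates merged. Sequences absent from the output ('random_non_nuc') were imputed with the library mode value, so they are given as censored (<). Nucleators are scores significantly >0 at FDR 0.05.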
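Note: [psi-pin-] Saccharomyces cerevisiae expressing SupN fusions, induced by 100 µM Cu2SO4, selected 7 d at 30 °C without adenine and uracil, scored by deep sequencing of output versus input.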

Sequence | amyloid nucleation score
EASNCFAIRHFENKFAVETLICRDYSLPWPQVGA | -0.345
EASNCFAIRHFENKFAVETLICVRCPLACLVPAG | inactive
EASNCFAIRHFENKFAVETLICKERQSGRRCIWR | inactive
EASNCFAIRHFENKFAVETLICRCVSSGSECACK | 5.28
EASNCFAIRHFENKFAVETLICRLQLMGTIGVTG | inactive
EASNCFAIRHFENKFAVETLICNIQFVYTLDRRR | 5.52
EASNCFAIRHFENKFAVETLICYLPVVNGEFALV | inactive
EASNCFAIRHFENKFAVETLICKRDAFPLCTRSE | inactive
EASNCFAIRHFENKFAVETLICDWFNGI | -0.534
EASNCFAIRHFENKFAVETLICEKFMVDEGSRGP | 5.12
EASNCFAIRHFENKFAVETLICPSVTITSTVNLR | 6.96
EASNCFAIRHFENKFAVETLICVLSIGQVCASRR | 5.42
EASNCFAIRHFENKFAVETLICVGLSDML | inactive
EASNCFAIRHFENKFAVETLICGIMGCWSVSSEK | 8.94
EASNCFAIRHFENKFAVETLICGMSLRRGRNDWS | inactive
EASNCFAIRHFENKFAVETLICVRESAWWMETRW | 1.28
EASNCFAIRHFENKFAVETLICEWLCLSMVYRRM | inactive
EASNCFAIRHFENKFAVETLICRVSCLTMRGWRG | inactive
EASNCFAIRHFENKFAVETLICGLRT | -0.00976
EASNCFAIRHFENKFAVETLICYRLFRYFFVCDG | inactive
EASNCFAIRHFENKFAVETLICFLHLDVCLGLS | inactive
EASNCFAIRHFENKFAVETLICLLMGKATSLNGR | inactive
EASNCFAIRHFENKFAVETLICRLTLVIISVIQV | inactive
EASNCFAIRHFENKFAVETLICAQAAGYRLSGIG | inactive
EASNCFAIRHFENKFAVETLICMEMPREWGRLSF | 3.85

Sequence | amyloid nucleation score
EASNCFAIRHFENKFAVETLICAMFRRGMVLR | inactive
EASNCFAIRHFENKFAVETLICRKPAWNLQTMWE | 1.18
EASNCFAIRHFENKFAVETLICMFG | 7.05
EASNCFAIRHFENKFAVETLICRMSLCYVDFLEG | 4.89
EASNCFAIRHFENKFAVETLICYVPRLL | inactive
EASNCFAIRHFENKFAVETLICNNISRPHSQAST | inactive
EASNCFAIRHFENKFAVETLICGKALLFDQDGLS | inactive
EASNCFAIRHFENKFAVETLICRVECPPGRMVYQ | -0.0194
EASNCFAIRHFENKFAVETLICHSVGDSIPCLDV | inactive
EASNCFAIRHFENKFAVETLICLIVF | inactive
EASNCFAIRHFENKFAVETLICLVCVSIAMCSVG | inactive
EASNCFAIRHFENKFAVETLICMNLLPIGLVCPW | 6.98
EASNCFAIRHFENKFAVETLICGHKSDDSSDRQM | inactive
EASNCFAIRHFENKFAVETLICYVKYEIMASKMW | inactive
EASNCFAIRHFENKFAVETLICDDMFVARNRGLL | inactive
EASNCFAIRHFENKFAVETLICDVRWSM | inactive
EASNCFAIRHFENKFAVETLICFVQWQKHKIVSR | inactive
EASNCFAIRHFENKFAVETLICVTGLLGAMVRWK | inactive
EASNCFAIRHFENKFAVETLICVCWFR | 5.56
EASNCFAIRHFENKFAVETLICAAEACHSWSRWH | inactive
EASNCFAIRHFENKFAVETLICWKPLSDSFYLAS | inactive
EASNCFAIRHFENKFAVETLICYCAM | 2.83
EASNCFAIRHFENKFAVETLICFLK | inactive
EASNCFAIRHFENKFAVETLICPFNKGRYMAFAS | inactive
EASNCFAIRHFENKFAVETLICITW | 4.75

Same assay, conditions: random library (experiment): 2

Sequence | amyloid nucleation score
EASNCFAIRHFENKFAVETLICRSCFLLVMWELY | inactive
EASNCFAIRHFENKFAVETLICIILIRLIDSIDR | 3.27
EASNCFAIRHFENKFAVETLICCTTNIVFWDSTM | 7.75
EASNCFAIRHFENKFAVETLICLRESYCISYPRV | inactive
EASNCFAIRHFENKFAVETLICLFSGMTTGVICR | inactive
EASNCFAIRHFENKFAVETLICIEGRKHSGEGLS | inactive
EASNCFAIRHFENKFAVETLICVCCHGIYWYDCG | 4.65
EASNCFAIRHFENKFAVETLICFVLCL | 5.59
EASNCFAIRHFENKFAVETLICRTGGDSGGIVRC | 0
EASNCFAIRHFENKFAVETLICCHLISVHTDLRG | 5.82
EASNCFAIRHFENKFAVETLICHYCHGVYLFGR | 6.9
EASNCFAIRHFENKFAVETLICKCGN | 5.2
EASNCFAIRHFENKFAVETLICYWYFQSGVESAV | inactive
EASNCFAIRHFENKFAVETLICELSERCS | -0.519
EASNCFAIRHFENKFAVETLICMSFNK | 7.51
EASNCFAIRHFENKFAVETLICTRQERGFSEVND | inactive
EASNCFAIRHFENKFAVETLICVVMCDGLANSLW | 5.12
EASNCFAIRHFENKFAVETLICFSFVS | 8.72

Sequence | amyloid nucleation score
EASNCFAIRHFENKFAVETLICCFEVDKLGSSAG | 4.29
EASNCFAIRHFENKFAVETLICNCL | 7.93
EASNCFAIRHFENKFAVETLICQLSSLYIIRMGC | inactive
EASNCFAIRHFENKFAVETLICATGTRREKVASG | inactive
EASNCFAIRHFENKFAVETLICFIGTVCFSFMVF | inactive
EASNCFAIRHFENKFAVETLICPHFSSNFIGSFV | inactive
EASNCFAIRHFENKFAVETLICLLWAEGWAVSPW | inactive
EASNCFAIRHFENKFAVETLICTLWWNYAYAL | inactive
EASNCFAIRHFENKFAVETLICMWCVWMLVCSGR | inactive
EASNCFAIRHFENKFAVETLICLFYI | 3.14
EASNCFAIRHFENKFAVETLICTNWYFPIIDF | inactive
EASNCFAIRHFENKFAVETLICPVLDSCMCSGGV | 6.31
EASNCFAIRHFENKFAVETLICICCNTTVYHWVG | 6.45
EASNCFAIRHFENKFAVETLICGY | inactive
EASNCFAIRHFENKFAVETLICCMILQHVALCAR | inactive
EASNCFAIRHFENKFAVETLICNVFTSQLVKAGW | 6.33
EASNCFAIRHFENKFAVETLICNGWNCLDLIRPF | 7.75

Same assay, conditions: random library (experiment): 3

Sequence | amyloid nucleation score
EASNCFAIRHFENKFAVETLICYLVQML | 6.82
EASNCFAIRHFENKFAVETLICCWAAVRMLSTSV | inactive
EASNCFAIRHFENKFAVETLICYVPATAPTSFRD | 3.96
EASNCFAIRHFENKFAVETLICKVGASLDLVVPE | inactive
EASNCFAIRHFENKFAVETLICYDDPLMLYGKFD | 1.3
EASNCFAIRHFENKFAVETLICGSVF | 3.78
EASNCFAIRHFENKFAVETLICFFTANNNFIRHR | 3.47
EASNCFAIRHFENKFAVETLICRRATSRLGNEF | -0.158
EASNCFAIRHFENKFAVETLICEGASRDGIEVDM | inactive
EASNCFAIRHFENKFAVETLICYFEIYFIEASFG | 0.412
EASNCFAIRHFENKFAVETLICLGCRLFGGVGAR | 3.86
EASNCFAIRHFENKFAVETLICWRARKSRAGGMW | inactive
EASNCFAIRHFENKFAVETLICVSGGWDSLGRRV | inactive
EASNCFAIRHFENKFAVETLICTGDVKRVTRFRA | inactive
EASNCFAIRHFENKFAVETLICVSRL | 2.3
EASNCFAIRHFENKFAVETLICMRTGE | inactive

Sequence | amyloid nucleation score
EASNCFAIRHFENKFAVETLICHFPVWSRGRWPG | 5.5
EASNCFAIRHFENKFAVETLICGIAIGHGARRLG | inactive
EASNCFAIRHFENKFAVETLICGSTRLVRYLPGV | -0.396
EASNCFAIRHFENKFAVETLICLGTSDTCVFNCN | 8.91
EASNCFAIRHFENKFAVETLICLRAVKNLPVQLL | inactive
EASNCFAIRHFENKFAVETLICACF | 3.94
EASNCFAIRHFENKFAVETLICMFGFWFRCSVMV | inactive
EASNCFAIRHFENKFAVETLICCAEYEHYVGSCK | inactive
EASNCFAIRHFENKFAVETLICEMTWMKG | inactive
EASNCFAIRHFENKFAVETLICVAVERSSVSGLE | inactive
EASNCFAIRHFENKFAVETLICDVNWCIYVGRK | 6.01
EASNCFAIRHFENKFAVETLICDRQSLSCVRSYM | 0.908
EASNCFAIRHFENKFAVETLICEREIGGWVVWQG | inactive
EASNCFAIRHFENKFAVETLICAVGTVDKGRWLF | inactive
EASNCFAIRHFENKFAVETLICMTVGIKSEISGW | inactive
